Measured values as given in the supplement of paper PMC11417369.
± gives the standard deviation of the averaged measurements. This is one part of the list.

The sequences below were run on PfAP2-G AP2 domain (GST-tagged) (assay: gcPBM binding intensity (ln(normalized median fluorescence intensity)); higher = stronger DNA binding).
Summary of the method: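 DNA-binding domains from P. falciparum, fused to GST and produced in E. coli, were put on an Agilent 4 × 180k double-stranded probe array for 1 h in 1× PBS holding 1% milk, 0.2 mg/ml BSA, 0.5% salmon testes DNA and 0.03% Triton X-100. Probes were primer-extended, 36 bp long and drawn from intergenic genomic regions, with negative controls included. After Alexa488 anti-GST antibody detection and a 488 nm scan, binding intensity was set as the highest Masliner-normalised natural-log median intensity across replicate spots of either probe orientation.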

Sequence | gcPBM binding intensity (ln)
AAATATAAGTAAATAAATAAATATATAAATATATAA [TGCATGCA_negctrl_site441] | 9.53 ± 0.16
AAATACATACATTAATGTACAAATAGAAACACTCTT [XGTACX_site1512] | 10.7 ± 0.42
GCTTAGTTATATAACTGTACTATTTTTATTTATATG [XGTACX_site884] | 11.5 ± 0.97
CTTATACAAAAAAAAAGTACATAACATAATAAGAAT [XGTACX_site6782] | 11.5 ± 0.81
ACAGATGATCAAAATTGTACAGAGTTATATTATATT [XGTACX_site4642] | 10.7 ± 0.44
TTATTTAAAAATAGCACACATTATATATATATATAT [CACACA_site5556] | 9.99 ± 0.2
ATATCATATATAAGTCGTACGATGAATAGAATTTTT [XGTACX_site7586] | 10.8 ± 0.38
CACCCATACAGACATACACACACATATATATTAATA [CACACA_site8077] | 10.3 ± 0.29
GATAAACCATATATAACACACATATGAATATTGCAA [CACACA_site6735] | 9.945 ± 0.092
ATTATATAATTTAATCGTACACAAATATTTGTTAGT [XGTACX_site5913] | 11.3 ± 0.8
TATATATATATAACAACACACACAGATCATAAAACT [CACACA_site8670] | 10.3 ± 0.27
TATTTTTTTTCGTAATGTACATAAAAAATGCAAAAA [XGTACX_site8491] | 11.3 ± 1
CAAAATATTTTTATAACACACATATATAGAATGTGC [CACACA_site1145] | 9.94 ± 0.014
CCATAATTATATGCCAGTACATATTTGTAACAAAAA [XGTACX_site851] | 10.9 ± 0.6
TTTATTTTTCATTGGGGTACACAAGTTTATTTTATT [XGTACX_site4263] | 11.7 ± 0.96
TAAGTAATAGTTTGTGCACACTCAAGTATATCATAT [CACACA_site4035] | 10.5 ± 0.29
TATTATTCCATGTGAAGTACAGAAATATAAATAAAT [XGTACX_site5106] | 11.3 ± 0.78
CTTTTAAAAAAATTCATGCACACGAAATAAAAAGCA [CACACA_site929] | 10.2 ± 0.19
TATCATCTTAATATCGTGCACATTTATAGAACGAAA [GTGCAC_site9992] | 10.2 ± 0.3
CTATTTTAATATTTTACACACCATGTAAAATATATA [CACACA_site5732] | 10.1 ± 0.15
TTTTACTATACTTATGCACACAAGATAAATACATAT [CACACA_site5619] | 10.2 ± 0.15
ATACCTCAAATTGATACACACAAAAAAAGTAAATTA [CACACA_site3134] | 10.2 ± 0.25

Sequence | gcPBM binding intensity (ln)
TATTAAAAGGTGAGTACACACATATATGTGTATATA [CACACA_site7070] | 11.4 ± 0.83
ATATATATATATATATGTACACAGGACAATAATCCT [XGTACX_site6383] | 11.2 ± 0.66
ATTTGGCAGAAACACACACACACACCCACCCACATA [CACACA_site589] | 10.5 ± 0.33
ATCATGAAATATATTTGTACACATAATAATATAATA [XGTACX_site8798] | 11.4 ± 0.89
TTTTTTTTTATAAATACACACGTACGGGTGCATAAC [CACACA_site8444] | 11.1 ± 0.81
TTATAGAAACATTGGTGTACGATATTTACTTCTTTC [XGTACX_site7314] | 11.2 ± 0.79
ACTAATTACTATAAAACACACATATATTTATTTATA [CACACA_site7263] | 10.01 ± 0.092
CACATGTATTTATAGGTGCGTAAAAACACTTTATAT [GTGCAC_site9501] | 10.5 ± 0.2
AAAGAAAATTCAATAGTGCATAAAAATATATATGTT [GTGCAC_site9680] | 9.86
GGAATAGTCGGGTGCATACACACCTTAAATATAATA [CACACA_site1081] | 10.3 ± 0.45
AATCATATTAGTATGGTGCAATATATATATAAATAT [GTGCAC_site9800] | 9.975 ± 0.049
AAACATAAATTTTATTGTACATTATATAGAATTTTC [XGTACX_site576] | 10.9 ± 0.5
TTTTCATTTTTTCGTTGTACATAAATAATATATATT [XGTACX_site856] | 11.2 ± 0.61
AATACATACATACATACACACATATATATATATTAT [CACACA_site3575] | 10.2 ± 0.12
TTTTTTAAAAGATAATATTTTATTAATGTATTCTCA [GTGCAC_negctrl_site598] | 9.54 ± 0.014
TAAAAAAATTCATGCACACGAAATAAAAAGCACCTT [CACACA_site4667] | 10.2 ± 0.14
TTTTACTATACTTATGCACACAAGATATATACATAT [CACACA_site2968] | 10.28 ± 0.049
TATTTATTGTGACACTTATATTATTTTATGATTAAA [CACACA_negctrl_site525] | 10.2 ± 0.3
TTTTCATTTGTGACAGTGCAAAATGTTATATTAAAA [GTGCAC_site9647] | 10.2 ± 0.28
TATAAAATGATGATATGTACTTATGTAGTTTTTTTA [XGTACX_site8711] | 11 ± 0.64
AATATATGGTTTCATGATATTAAATTCAAAATAATG [CACACA_negctrl_site318] | 9.95 ± 0.071
AATAATACATCCTTAGTGCAGAAATAAAAATTAAGC [GTGCAC_site9955] | 10.2 ± 0.26

Sequence | gcPBM binding intensity (ln)
TGTATACATTCTGAATGTACGGAACACCTCATAACT [XGTACX_site7240] | 10.8 ± 0.52
TTTGTAATAAATAAGAGTACAAGTATGGTTCCACTA [XGTACX_site2579] | 11.4 ± 1
ATTGGACTATAAATAGGTACACATATATATATATAT [XGTACX_site7562] | 11.5 ± 0.73
TCATATATTCAAAAATTTAAAGTTAATAAAACTTGA [CACACA_negctrl_site1546] | 9.46 ± 0.014
AAAAAAAAAAAAAACACACACATATAAATATAAATA [CACACA_site6972] | 9.98 ± 0.22
ATTATTTGAAACTATTGTACATTTAAAAACATTTTT [XGTACX_site4896] | 10.9 ± 0.42
TGGAACCTTTAAAATACACACCCAAATCCTTTGAAA [CACACA_site7671] | 10.14 ± 0.064
CATATATATTTTATTTGTACGTATAAAAAAACAAAA [XGTACX_site4253] | 11.5 ± 1.1
TAAATACTTGTATATAGTACAAGTTGTTTTTTTTAA [XGTACX_site5643] | 10.7 ± 0.42
AATGTGTTTTTTTTTTTTTTTTTTTTCAATCTCTAT [CACACA_negctrl_site794] | 9.685 ± 0.092
GAAAAAAGAAAAAAAAGTACACACATGTATATTAAT [XGTACX_site5265] | 11.5 ± 0.91
AATGTACACCCACCCACACACAAACAAATATATATA [CACACA_site5521] | 11.4 ± 0.92
TTTTTGTTTGAACACTGTACGTATAAATATAAAAGT [XGTACX_site6476] | 11.7 ± 0.84
TATATATAAAAACACACACACACACCCTATAATTAT [CACACA_site4063] | 10.3 ± 0.26
TTGTGTTATCACACGAAGGGGATAAGACATAAATGT [TGCATGCA_negctrl_site368] | 10 ± 0.13
TTTCAAATTTAATACACACACAAGTATATATTTATC [CACACA_site3947] | 10.1 ± 0.23
TAAGACAATAAATGCTGTACAATTGAATATCTTGGA [XGTACX_site636] | 10.9 ± 0.25
TTATAAAAATTTAGTTGTACATGTCAAATTATCAAT [XGTACX_site7229] | 11.1 ± 0.77
TTTTCGTAACTGATTCAACACACAAAAGGGGGAAAA [CACACA_site8517] | 10.8 ± 0.61
AATATATAGCTAAAAACACACAAATATATACACATA [CACACA_site9203] | 10.1 ± 0.25
TATTTTATTATTATTATTAGTATGATTTCTTTATAG [CACACA_negctrl_site550] | 9.675 ± 0.021
GGATAGGCATAACATAGTACGTACAAATATATATAT [XGTACX_site454] | 11.6 ± 0.91

Sequence | gcPBM binding intensity (ln)
TATTTTATTATTATTATTTCTTTATAGTGTATTCTA [CACACA_negctrl_site517] | 9.785 ± 0.092
TTTTTTGTACCAAAAAAAAAAAAAAGAAAAAAAAAC [CACACA_negctrl_site1416] | 10.8 ± 0.92
TTAACAAATAAACACACACACACACCCAAAAAAAAA [CACACA_site8068] | 10.4 ± 0.32
ATAAAAAAAAAAACAGTAAAATTATAATTATAATTA [TGCATGCA_negctrl_site356] | 9.635 ± 0.049
AATGTAAAATCTTCATATACATTTAAGTCTGTATTT [TGCATGCA_negctrl_site183] | 9.53 ± 0.23
ACAAAAATTAAATAAAGTACATTTTTAAAATACGTA [XGTACX_site3880] | 11.2 ± 0.64
TAATGATAAATACATACACACAAAAAATGATATATA [CACACA_site7258] | 9.91
TATATCCCTTAGAATACACACCCATATGAGTGTGAA [CACACA_site8965] | 9.96 ± 0.23
AAAAGCACAAAAAATACACACACAAAAAATAAAAAA [CACACA_site8545] | 10 ± 0.19
CATATTATATTCTGCTTACACACATATATATATATA [CACACA_site3059] | 10.2 ± 0.23
TTTTTTTGTTATATCCTGCACTTCTTAACTATATTA [GTGCAC_site9807] | 10.22 ± 0.092
AATAATAAGAATAACGCATGCACATATAATATAGAA [TGCATGCA_site3] | 9.96 ± 0.17
AATATGTAGTAATCAAGTACTAATGTCTTAATTCGG [XGTACX_site308] | 10.6 ± 0.4
GTTTTTTATATAAGGTGGTCAACATTGTAATGTTAA [XGTACX_site3204] | 11.3 ± 0.81
AGCTGAAAAAAAAGCTTGCACACGTATTTGCTTTAT [CACACA_site1512] | 10.4 ± 0.27
AAATTACACATCCATACACACATATTTTTTTTAATT [CACACA_site5242] | 10.1 ± 0.15
GTATATATGTATATGTGTACACATATTCTTAACTCA [XGTACX_site309] | 11.6 ± 0.89
ATATAAATTGGCAATAGTACATAAAGGCATAGAAAG [XGTACX_site2674] | 11 ± 0.53
TATAGATACATATACACACACACACCGACATATATA [CACACA_site9138] | 10.1 ± 0.17
TATATGGAAAATTAAAGTACTAAAGAATAAATAGAA [XGTACX_site8796] | 11 ± 0.64
TATAAAATAAATTGTGCACACATATTTATAAATATG [CACACA_site2330] | 10.6 ± 0.27
GAGAAACTTGTTTAAACATGCACAAAAAAAAAAAAA [TGCATGCA_site340] | 9.96 ± 0.36
